Measured values taken from PubChem BioAssay AID1468 (National Center for Advancing Translational Sciences (NCATS), 2008).
Out of some 280,000 compounds screened, about 1,100 (0.39%) were called active. The inconclusive results got no clear call from the source; some entries with a clear call stand among them for comparison. Calls follow the shape of the dose curve; as a rule, active = well fitted inhibition curve with a large enough effect; inconclusive = small, poorly fitted or top-dose-only effect, or effect the other way; inactive = flat fitted curve, though single readings scatter. Potencies of inconclusive entries are left out as doubtful fits.

What follows are compounds tested against Microtubule-associated protein tau (Homo sapiens) (UniProt P10636) (assay: qHTS for Inhibitors of Tau Fibril Formation, Fluorescence Polarization). Details: K18 P301L tau heparin fibrillization, Alexa594 FP, 6 h; series mostly up to 57.7 µM.
Sequence of UniProt P10636 (P10636 whole entry, looked up): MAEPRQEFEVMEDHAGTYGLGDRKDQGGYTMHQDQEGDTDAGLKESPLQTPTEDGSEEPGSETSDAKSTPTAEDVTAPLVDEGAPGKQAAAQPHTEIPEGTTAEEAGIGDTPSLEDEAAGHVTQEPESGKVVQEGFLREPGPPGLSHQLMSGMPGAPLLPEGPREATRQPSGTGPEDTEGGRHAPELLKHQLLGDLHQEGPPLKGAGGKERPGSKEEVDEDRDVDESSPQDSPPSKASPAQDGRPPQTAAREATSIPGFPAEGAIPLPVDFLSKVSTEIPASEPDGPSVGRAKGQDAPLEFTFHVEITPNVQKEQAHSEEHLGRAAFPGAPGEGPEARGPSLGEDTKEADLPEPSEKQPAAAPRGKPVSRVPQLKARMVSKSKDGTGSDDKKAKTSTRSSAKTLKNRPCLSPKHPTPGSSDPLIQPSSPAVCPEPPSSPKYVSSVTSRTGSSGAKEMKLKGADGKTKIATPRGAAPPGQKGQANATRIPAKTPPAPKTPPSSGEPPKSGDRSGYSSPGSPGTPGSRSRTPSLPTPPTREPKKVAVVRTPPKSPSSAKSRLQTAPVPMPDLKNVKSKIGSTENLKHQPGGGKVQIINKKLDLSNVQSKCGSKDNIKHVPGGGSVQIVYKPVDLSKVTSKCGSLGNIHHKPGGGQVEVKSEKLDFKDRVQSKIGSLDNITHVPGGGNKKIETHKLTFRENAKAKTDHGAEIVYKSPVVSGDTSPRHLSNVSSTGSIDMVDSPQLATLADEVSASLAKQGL
How it was run: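 Quantitative HTS format: compounds meet 15 uM recombinant K18 P301L tau and Alexa 594-tau tracer in 100 mM sodium acetate pH 7; 20 uM heparin triggers fibrillization at 37 C over 6 hr; FP gives the signal.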
Also: nearly all actives have a fitted effect of over 55% in size.
Potency is read from the fitted curve at half-maximal effect; tags tell the direction and shape of the fitted curve.

| SMILES | Potency |
| --- | --- |
| NS(=O)(=O)c1ccc(NC(=O)c2ccc3c(c2)CCN3S(=O)(=O)c2ccccc2)cc1 | inconclusive [inhibitor, single point] |
| CC1=C(c2ccc(C)cc2)S(=O)(=O)N(Cc2ccc(C(=O)Nc3ccc(F)cc3C)cc2)C1=O | inactive |
| CCCCC1=CC2=CC(=O)C(C)(OC(=O)CC)C(=O)C2=CO1 (configuration not stated) | inconclusive [activator, single point] |
| Cc1nc2ccc(NC(=S)NCCCO)cc2nc1C | inconclusive [inhibitor, single point] |
| Cc1ccnc(NC(=O)c2cccc(NC(=O)Cc3ccccc3)c2)c1 | inconclusive [inhibitor, single point] |
| Cc1ccc2[nH]c(=O)c(C(c3nnnn3CC3CCCO3)N3CCc4ccccc4C3)cc2c1 (configuration not stated) | inconclusive [inhibitor, partial curve] |
| Cn1c(=O)n(C/C=C/c2ccccc2)c(=O)c2c1nc1n2CCCN1c1ccc(F)cc1 | inconclusive [activator, single point] |
| COc1cc2ccccc2cc1C(=O)Nc1ccc(Cl)c(-c2nc3ccccc3o2)c1 | inconclusive [inhibitor, partial curve, poor fit] |
| Cc1ccc(N2C(=O)c3[nH]nc(-c4ccc(Cl)cc4)c3C2c2ccc(F)cc2)cc1 (configuration not stated) | inconclusive [inhibitor, single point] |
| CN1CCN(C(CC(=O)Nc2cccc(O)c2)C(=O)O)CC1 (configuration not stated) | inconclusive [inhibitor, single point] |
| N#C/C(=C(/O)c1cc2ccccc2o1)c1nc2ccccc2s1 | inconclusive [activator, partial curve, poor fit] |
| CSc1ccc(Cl)c(C(=O)OCC(=O)NCC(C)C)c1 | inactive |
| COc1ccc(Br)c2oc(S)cc(=O)c12 | inconclusive [inhibitor, partial curve] |
| CCN(CC)S(=O)(=O)c1cccc(C(=O)N/N=C/c2ccc(O)c(O)c2O)c1 | active: 8.91 µM |
| Cn1c(-c2ccccc2)c(/C=N/NC(=O)c2ccc(O)cc2)c2ccccc21 | inactive |
| CCc1sc(Nc2cccc(Cl)c2C)nc1-c1cc2cccc(OC)c2oc1=O | inactive |
| COc1cccc(Cn2cccc(NC(=O)Nc3ccc(C#N)cc3)c2=O)c1 | inconclusive [inhibitor, single point] |
| CS(=O)c1ccc(-c2nc(-c3ccc(F)cc3)c(-c3ccncc3)[nH]2)cc1 (configuration not stated) | inactive |
| CCC(=O)Nc1ccc(-c2nnc3c4ccccc4c(C)nn23)cc1 | inconclusive [inhibitor, single point] |
| CCOc1ccc(C(=O)NC2CC3CCCC(C2)N3CC(C)C)cc1 (configuration not stated) | inconclusive [inhibitor, full curve, poor fit] |
| Cc1ccc(C(=O)Cn2nc(C(=O)O)c3ccccc3c2=O)cc1C | inconclusive [inhibitor, single point] |

| SMILES | Potency |
| --- | --- |
| CNC(=O)c1ccc(Nc2nnc(-c3ccc(C)c(S(=O)(=O)N(C)C)c3)c3ccccc23)cc1 | inconclusive [inhibitor, partial curve] |
| O=C(NC(=S)NCCO)c1sc2ccccc2c1Cl | inactive |
| N#Cc1ccc(CSc2nc3c(c(=O)[nH]2)CCC3)cc1 | inconclusive [inhibitor, single point] |
| O=C(Cc1cccc2ccccc12)N/N=C/C=C/c1cccc([N+](=O)[O-])c1 | inactive |
| COc1cc(NC(=O)CSc2nc(-c3ccc(C)cc3)nc3c2Cc2ccccc2O3)cc(OC)c1 | inconclusive [inhibitor, single point] |
| Cc1ccc(Sc2sc(=O)n(C)c2S(=O)(=O)c2ccc(C)cc2)cc1 | inconclusive [inhibitor, partial curve, poor fit] |
| COC(=O)c1sc2cccc(F)c2c1S(=O)(=O)N1CCN(c2ccc(F)cc2)CC1 | inactive |
| CN(Cc1ccco1)c1nc(-c2cccc(C#N)c2)nc2ccccc12 | inconclusive [inhibitor, partial curve] |
| CN1CCSc2ccc(C(=O)Nc3cccc(F)c3)cc21 | inconclusive [activator, full curve] |
| Cn1c(NCc2cc(Br)ccc2O)nc2ccccc21 | inconclusive [activator, single point] |
| COC(=O)c1ccc(C)c(NC(=O)CCc2ccc(OC)cc2)c1 | inactive |
| CCN(C(=O)COC(=O)CNC(=O)c1ccc(C)s1)c1ccccc1 | inconclusive [inhibitor, single point] |
| O=C(Nc1ccc2c(c1)OCCO2)c1ccc(S(=O)(=O)N2CCCCC2)cc1 | inconclusive [activator, single point] |
| CC(=O)c1cc(C(=O)Nc2cc(C)cc(C)c2)c2ccccn12 | inconclusive [inhibitor, single point] |
| CCOC(=O)c1c(N)sc(N)c1C(=O)OCC | inconclusive [inhibitor, partial curve, poor fit] |
| COC(=O)c1ccc(/C=C(\C#N)C(=O)NC(C)c2ccccc2)cc1 (configuration not stated) | inconclusive [activator, partial curve] |
| COc1ccc(N2CCN(C3=NS(=O)(=O)C(c4cccc(Br)c4)=C3C)CC2)cc1 | inconclusive [inhibitor, single point] |
| O=C(Oc1cncc(Cl)c1)c1ccco1 | inconclusive [activator, single point] |
| O=C(O)c1cc(-c2ccc(/C=N/N3C(=O)C4C5C=CC(C6CC56)C4C3=O)o2)ccc1Cl (configuration not stated) | inactive |
| CSc1ccc(C(=O)C2CCCN(C(=O)c3ccc4c(c3)no[n+]4[O-])C2)cc1 (configuration not stated) | inconclusive [inhibitor, partial curve, poor fit] |
| COc1cc2c(cc1OC)CN(Cc1ccc(OC)c(C)c1OC)CC2 | inconclusive [inhibitor, single point] |
